Here are results for 153 variants from a collection of fitness landscapes (doi:10.1126/science.1257360).

B1: PhoQ; a variant is named by its letters at X, in order, P23837 (parent)
chain: MKKLLRLFFPLSLRVRFLLATAAVVLVLSLAYGMVALIGYSVSFDKTTFRLLRGESNLFYTLAKWENNKLHVELPENIDKQSPTMTLIYDENGQLLWAQRDVPWLMKMIQPDWLKSNGFHEIEADVNDTSLLLSGDHSIQQQLQEVREDDDDAEMTHSVAVNVYPATSRMPKLTIVVVDTIPVELKSSYMVWSWFIYVLSANLLLVIPLLWVAAWWSLRPIEALAKEVRELEEHNRELLNPATTRELTSLVRNLNRLLKSERERYDKYRTTLTDLTHSLKTPLXXLQXXLRSLRSEKMSVSDAEPVMLEQISRISQQIGYYLHRASMRGGTLLSRELHPVAPLLDNLTSALNKVYQRKGVNISLDISPEISFVGEQNDFVEVMGNVLDNACKYCLEFVEISARQTDEHLYIVVEDDGPGIPLSKREVIFDRGQRVDTLRPGQGVGLAVAREITEQYEGKIVAGESMLGGARMEVIFGRQHSAPKDE

This is one part of the list.

The assay covers variants of B1. The assay can be described thus: enrichment ratio after two sorts for PhoP signalling (ratio (wild type AVST 3.29)); higher = more functional. The conditions noted are these: with PhoP (E. coli).
Turning to NNQQ, the enrichment ratio is no more than 0.25.
Regarding LPSR, the enrichment ratio was no more than 0.25.
The figure for YRAN is no more than 0.25; for HYTD it is no more than 0.25; for YRSV it is no more than 0.25.
Consider SWSF, for which the enrichment ratio was no more than 0.25.
Take MRPL: the enrichment ratio was no more than 0.25.
The figure for NKWF is no more than 0.25.
On to KLNR, for which the enrichment ratio is no more than 0.25.
On to GGKK, for which the enrichment ratio was no more than 0.25.
With QEDF the figure was no more than 0.25.
Take RNPC: the enrichment ratio is no more than 0.25.
With QGNQ the figure was no more than 0.25.
The figure for GIRL is no more than 0.25.
The figure for EYAH is no more than 0.25; for WWLL it is no more than 0.25; for HEHK it is no more than 0.25.
Regarding QFWV, the enrichment ratio is no more than 0.25.
Consider MPQV, for which the enrichment ratio is no more than 0.25.
With YKIW, the enrichment ratio was no more than 0.25.
The figure for IDQS is no more than 0.25; for VGKR it is no more than 0.25; for RKSI it is no more than 0.25.
Take KKIY: the enrichment ratio was no more than 0.25.
The figure for SAPN is no more than 0.25; for GKFY it is no more than 0.25.
Regarding SHVV, the enrichment ratio is no more than 0.25.
As for IRGF, the enrichment ratio is no more than 0.25.
The figure for HRTV is no more than 0.25; for YNYV it is no more than 0.25; for HRQM it is no more than 0.25.
With ARFH the figure was no more than 0.25.
The figure for VHFR is no more than 0.25; for TLDN it is no more than 0.25; for AGNH it is no more than 0.25.
In the case of EDTK, the enrichment ratio is no more than 0.25.
With PANQ the figure was no more than 0.25; with RGEN, no more than 0.25.
Turning to KSQH, the enrichment ratio is no more than 0.25.
With MNCG the figure was no more than 0.25; with NLLV, no more than 0.25.
The figure for IKEF is no more than 0.25; for YQTK it is no more than 0.25; for GVFK it is no more than 0.25.
For the variant PHTY, the enrichment ratio is no more than 0.25.
With KNKG the figure was no more than 0.25; with ASWW, no more than 0.25.
Turning to IVDN, the enrichment ratio is no more than 0.25.
In the case of QETH, the enrichment ratio is no more than 0.25.
In the case of YLEV, the enrichment ratio was no more than 0.25.
With NIVF the figure was no more than 0.25; with NPQA, no more than 0.25.
The figure for RQRR is no more than 0.25; for YGND it is no more than 0.25.
Regarding PWLY, the enrichment ratio was no more than 0.25.
As for PRYA, the enrichment ratio was no more than 0.25.
For PGYN, the enrichment ratio is no more than 0.25.
The figure for IAVN is no more than 0.25; for EYLP it is 0.7; for WDCA it is no more than 0.25.
With TPNF the figure was no more than 0.25; with GGNL, no more than 0.25; with DLHL, no more than 0.25.
The figure for PCND is no more than 0.25; for PDAS it is no more than 0.25; for YIWR it is no more than 0.25.
YDYF: the enrichment ratio was no more than 0.25.
In the case of MEWD, the enrichment ratio is no more than 0.25.
With SRKI the figure was no more than 0.25.
With DDFQ the figure was no more than 0.25; with TRAF, no more than 0.25.
With MPRF, the enrichment ratio was no more than 0.25.
For VNHW, the enrichment ratio is no more than 0.25.
The figure for LAPH is no more than 0.25; for MLHT it is 11.5.
With RFVY the figure was no more than 0.25; with AHPN, no more than 0.25.
The figure for PGRG is no more than 0.25.
On to AHMK, for which the enrichment ratio was no more than 0.25.
With LGIV the figure was no more than 0.25; with LAGD, no more than 0.25; with HHLI, no more than 0.25.
Take RNGM: the enrichment ratio was no more than 0.25.
With YGNM the figure was no more than 0.25; with ISSN, no more than 0.25.
Regarding QKTL, the enrichment ratio is no more than 0.25.
Take ADHY: the enrichment ratio is no more than 0.25.
The figure for DPTY is no more than 0.25.
The figure for HWNC is no more than 0.25.
For the variant PQVF, the enrichment ratio was no more than 0.25.
With FHWH the figure was no more than 0.25; with SRTH, no more than 0.25; with TQSE, 5.
PRGY: the enrichment ratio stood at 0.915.
With YPDD the figure was no more than 0.25; with HKES, no more than 0.25.
Take TQRQ: the enrichment ratio is no more than 0.25.
Consider AMRY, for which the enrichment ratio is no more than 0.25.
The figure for DTWR is no more than 0.25.
With HHNG the figure was no more than 0.25; with IKAQ, no more than 0.25.
The figure for YQYM is no more than 0.25.
Turning to GADR, the enrichment ratio is no more than 0.25.
Turning to TDKM, the enrichment ratio was no more than 0.25.
For FWKI, the enrichment ratio is no more than 0.25.
Take TKSW: the enrichment ratio was no more than 0.25.
In the case of ETNA, the enrichment ratio is no more than 0.25.
Consider DCGS, for which the enrichment ratio was no more than 0.25.
The figure for IGII is no more than 0.25; for PDRN it is no more than 0.25; for VSLV it is 9.64.
In the case of AWIQ, the enrichment ratio is no more than 0.25.
The figure for ESWN is no more than 0.25.
Take MQGY: the enrichment ratio was no more than 0.25.
The figure for NSRF is no more than 0.25; for TWIM it is no more than 0.25; for NPKF it is no more than 0.25.
The figure for IAKL is no more than 0.25.
With EEET, the enrichment ratio is no more than 0.25.
On to QALN, for which the enrichment ratio worked out at 1.6.
With RIHH the figure was no more than 0.25.
The figure for QTYH is no more than 0.25; for DMEN it is no more than 0.25.
In the case of FHQF, the enrichment ratio is no more than 0.25.
As for LYDR, the enrichment ratio is no more than 0.25.
Take VDHE: the enrichment ratio was no more than 0.25.
As for WRQG, the enrichment ratio is no more than 0.25.
As to WPEF, the enrichment ratio is no more than 0.25.
With FQRA the figure was no more than 0.25; with VVFG, no more than 0.25; with KYGS, no more than 0.25.
As for SMGC, the enrichment ratio was 0.959.
PDLE: the enrichment ratio was no more than 0.25.
The figure for KSQS is no more than 0.25.
SEFN: the enrichment ratio is 4.06.
With LCIR the figure was no more than 0.25; with KAAT, no more than 0.25; with VKEA, no more than 0.25.
The figure for WCAK is no more than 0.25.
With EGWF the figure was no more than 0.25.
On to IYFQ, for which the enrichment ratio is no more than 0.25.
As to NWWD, the enrichment ratio was no more than 0.25.
In the case of QKNA, the enrichment ratio was no more than 0.25.
With IERD, the enrichment ratio was no more than 0.25.
The figure for FCLH is 2.83; for SPQN it is no more than 0.25; for AWTR it is no more than 0.25.
The figure for DSSM is no more than 0.25.
The figure for IFSW is no more than 0.25.
Regarding SCCV, the enrichment ratio is 8.64.
The figure for NVTD is no more than 0.25.
As to IDHP, the enrichment ratio was no more than 0.25.
In the case of LMWI, the enrichment ratio is no more than 0.25.
